The values that follow come from PubChem BioAssay AID1240 (Sanford-Burnham Center for Chemical Genomics, 2008).

The structures appear in SMILES notation. Among all 50,000 compounds or so, about 800 (1.6%) showed an effect of 50% or more. Some of the results follow.

This test addresses Bcl-2-like protein 10 (Homo sapiens) (UniProt Q9HD36). Description: TR3 peptide-Bcl-B binding displacers, biochemical primary FP assay, phenotype converters (AID 1240).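 Also: 0% = Bcl-B with tracer peptide and DMSO and 100% = tracer peptide lacking Bcl-B.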 The conditions noted are these: GST-Bcl-B / FITC-TR3 peptide fluorescence polarization; stronger effect = higher value; compound at 3.75 mg/L. (In fluorescence polarisation assays a small probe gives low polarisation when free and higher when bound to something large.)
Chain of UniProt Q9HD36 (Q9HD36 whole entry, looked up): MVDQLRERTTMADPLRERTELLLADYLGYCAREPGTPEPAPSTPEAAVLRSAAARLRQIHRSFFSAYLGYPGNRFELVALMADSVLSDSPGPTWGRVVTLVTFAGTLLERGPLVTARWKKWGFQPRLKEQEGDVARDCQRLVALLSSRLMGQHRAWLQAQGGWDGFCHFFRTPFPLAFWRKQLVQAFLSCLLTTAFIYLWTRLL
For the molecule `C=CCOc1ccc(/C=C2\SC(=O)NC2=O)cc1OC`, the displacement was found to be 3.2%.

Turning to `CCOc1ccc(N2C(=O)NC(=O)/C(=C\c3ccc(OCC)c(Cl)c3)C2=O)cc1`, the displacement turned out to be 5.6%.

In the case of `O=C(N/N=C/c1ccc(Br)c([N+](=O)[O-])c1)c1cccs1`, the displacement was found to be 113%.

Take `Cc1ccc(S(=O)(=O)Nc2ccccn2)cc1C`: the displacement came out at 20.4%.

`O=C1/C(=C\c2ccc(C(F)(F)F)cc2)SC(=S)N1c1cccc(Cl)c1`: the displacement stood at 17.1%.

As to `N#C/C(=C\c1ccco1)C(=O)NCc1ccccc1`, the displacement was 9.9%.

In the case of `Cn1c2c(c3cc([N+](=O)[O-])ccc31)CCCC2=O`, the displacement came out at 11.9%.

On to `COc1ccc(S(=O)(=O)N(CC(=O)N2CCCC2)c2ccc(C)cc2)cc1OC`, for which the displacement was -2.4%.

For `CC(=O)Oc1ccc(-c2cccc(C(=O)NCCCO)c2)cc1`, the displacement was 9.3%.

Consider `CC1=C(C(=O)OCCc2ccccc2)C(c2cccc([N+](=O)[O-])c2)CC(=O)N1` (configuration not stated), for which the displacement was -6.7%.

With `Cc1cccc(-n2c(C)cc(/C=N/NC(=O)c3ccccn3)c2C)c1`, the displacement was -22.1%.

As for `CCOC(=O)C1C2C(=O)N(c3ccc(C)cc3C)C(=O)C12` (configuration not stated), the displacement was 4.7%.

As for `CC(NC(=O)C(=O)NCCN1CCN(C(=O)c2ccc([N+](=O)[O-])cc2)CC1)c1ccccc1` (configuration not stated), the displacement stood at 8.5%.

Turning to `CC1=C(C(=O)OCCc2ccccc2)C(c2ccccc2Cl)CC(=O)N1` (configuration not stated), the displacement was -7.2%.

In the case of `CCc1ccc(NC(=O)C2CC(=O)N(C3CCCCC3)C2)cc1` (configuration not stated), the displacement is -0.2%.

Consider `CCN1C(=O)/C(=C\c2ccc(OC(C)=O)cc2)SC1=S`, for which the displacement was -7%.

Regarding `O=C(NC(=S)Nc1ccc2oc(-c3ccc(-c4ccccc4)cc3)nc2c1)c1ccco1`, the displacement worked out at 24.1%.

With `O=C(Nc1ccc(Cl)cc1Cl)c1ccccc1F`, the displacement came out at 0.8%.

On to `O=C(CCNc1ccc(Cl)c(Cl)c1)c1cccs1`, for which the displacement is -1.4%.

On to `Clc1cccc(C=NN2CCN(Cc3ccccc3Cl)CC2)c1`, for which the displacement was -2.6%.

With `O=C(NN(C(=O)C1CC1)c1nc2ccccc2s1)C1CC1`, the displacement was -2.4%.

With `Cc1ccc(NC(=O)COc2ccc(Cl)c(C)c2)c([N+](=O)[O-])c1`, the displacement stood at 11%.

Consider `O=C(CSc1nc2ccccc2[nH]1)Nc1ccccc1-c1ccccc1`, for which the displacement is -7.4%.

Take `CC(=O)c1ccc(NC(=O)/C=C/c2ccccc2)cc1`: the displacement was determined as 6.5%.

`COc1ccc(CNC(=O)CN2C(=O)c3ccccc3C2=O)cc1`: the displacement was -1.9%.

On to `CCOc1ccc2c(c1)SCC(=O)N2`, for which the displacement was -2.8%.

Take `CCOc1cc(/C=C(\C#N)c2nc3ccccc3s2)ccc1O`: the displacement came out at 0%.

Turning to `Cc1ccc(C2CC(C(F)(F)F)n3ncc(C(=O)Nc4ccccc4C(F)(F)F)c3N2)cc1` (configuration not stated), the displacement was -1.8%.

For `COc1ccc(Cc2ccc(OC)cc2)cc1`, the displacement amounted to 20.4%.

For the molecule `O=C(Nc1ccc(Cl)c(Cl)c1)Nc1nnc(-c2ccccc2I)s1`, the displacement is -1.9%.

For `CCC(=O)Nc1sc(Cc2ccccc2)c(C)c1C(N)=O`, the displacement is -4.5%.

Consider `O=C(c1ccccc1)c1ccc(C(=O)N(CCCCN2C(=O)c3ccccc3C2=O)c2ccc(F)cc2F)cc1`, for which the displacement came out at 8.6%.

With `CCC(Oc1ccccc1)C(=O)Nc1nc2ccc(C)cc2s1` (configuration not stated), the displacement came to 14.5%.

`CC1CCC2(CC1)C(C#N)=C1SCCCN1C(=O)C2C#N` (configuration not stated): the displacement is -3.9%.

As for `Cc1ccc(OCCNC(=O)Cc2cccc3ccccc23)cc1C`, the displacement is -14.6%.

`COc1ccc(C2/C(=C(/O)c3ccccc3)C(=O)C(=O)N2CC2CCCO2)c(OC)c1` (configuration not stated): the displacement stood at 5.5%.

Regarding `CC(=O)C1=C(O)C(=O)N(CCN(C)C)C1c1ccc(F)cc1` (configuration not stated), the displacement was -8.3%.

For the molecule `COc1ccc(N2C(=O)NC(=O)/C(=C\c3c(OC)ccc4ccccc34)C2=O)cc1`, the displacement was found to be 6.7%.

With `C/C(NCCCN1CCOCC1)=C(\C#N)C(=O)NCc1ccccc1`, the displacement is -12.7%.

Consider `CCOC(=O)C1=C(C)NC(C)=C(C(=O)OC)C1c1ccccc1` (configuration not stated), for which the displacement was found to be 3.3%.

As to `CCOC(=O)c1ccc(N2NC(=O)/C(=C/c3cccc([N+](=O)[O-])c3)C2=O)cc1`, the displacement worked out at 8.9%.

Take `COC(=O)c1c(NC(=O)c2ccc(C)c(C)c2)sc2c1CCCCC2`: the displacement is -7%.

Regarding `Ic1ccc(-c2nc(-c3ccccc3)no2)cc1`, the displacement stood at 7.6%.

`O=C(O)C(c1ccccc1)N1C(=O)c2cccc3cccc(c23)C1=O` (configuration not stated): the displacement worked out at 14.7%.

On to `COc1cc(C(=S)N2CCOCC2)ccc1OS(=O)(=O)c1ccc(C)cc1`, for which the displacement was 3.9%.

For `Cc1ccc(NC(=O)COc2ccc(Br)cc2)c(C)c1`, the displacement was 4.4%.

Regarding `Cc1c(OCC(=O)c2ccccc2)ccc2c3c(c(=O)oc12)CCC3`, the displacement was -5.1%.

`Cc1ccccc1CNC(=O)c1ccc(Cl)cc1`: the displacement is -0.7%.

For `COc1ccc(N(CC(=O)N2CCOCC2)S(C)(=O)=O)cc1Cl`, the displacement is -6.4%.

In the case of `Cc1ccc(OCC(O)CN2CC(C)OC(C)C2)cc1C` (configuration not stated), the displacement was 6.3%.

On to `COc1cccc(C(=O)/C=C/c2ccc(SC)cc2)c1`, for which the displacement is -5.8%.

Turning to `Cc1cccc(/C=N\NC(=O)c2ccccc2Cl)c1O`, the displacement came out at 35.7%.

As to `Cc1cccc(-c2nnc(-c3ccco3)o2)c1`, the displacement stood at 2.1%.

Regarding `CCCOc1ccc(C(=O)N2CCCCC2C)cc1` (configuration not stated), the displacement stood at 0.7%.

On to `CC(C)(C)NC(=O)CN(c1cccc(C(F)(F)F)c1)S(C)(=O)=O`, for which the displacement is -2.2%.

In the case of `COc1ccc2oc(=O)c(C(C)=O)cc2c1`, the displacement turned out to be 20.4%.

Regarding `COc1cccc(/C=C2/SC(=O)N(CNc3ccc(Br)cc3C)C2=O)c1`, the displacement is 9%.

`Nc1nnc(SCC(=O)N2c3ccccc3Sc3ccccc32)s1`: the displacement was -2%.

`O=C(CSc1ncccn1)NCCc1ccccc1`: the displacement worked out at 3.9%.

For `Nc1nnc(CC(=O)N/N=C/c2cc3c(cc2Br)OCO3)s1`, the displacement was 22%.

Take `COc1ccc(/C=C/C(=O)c2cccc([N+](=O)[O-])c2)cc1`: the displacement was 14.9%.

Take `COc1cc(/C=N/NC(=O)C(=O)N2CCCCCC2)ccc1O`: the displacement was 0%.

Regarding `CNC(=O)/C(=C/c1ccc(-c2ccc(Cl)cc2)o1)NC(=O)c1ccc(Cl)cc1`, the displacement is -5.1%.

Take `c1ccc(-n2ncc3c(NCc4ccco4)ncnc32)cc1`: the displacement amounted to 30.7%.

For `CCOC(=O)c1c(NC(=O)CN2CCN(C)CC2)sc2c1CCC2`, the displacement stood at 8.4%.

Turning to `O=[N+]([O-])c1ccc(C2Nc3ccc(OC(F)(F)F)cc3C3C=CCC32)cc1` (configuration not stated), the displacement worked out at 12.9%.

`COc1ccc(OC)c(CN2CCN(Cc3ccccc3OC)CC2)c1`: the displacement was 7.3%.

Consider `O=C(Cc1c(O)c2ccccc2[nH]c1=O)NCc1ccc(Cl)cc1`, for which the displacement was 5.9%.

For `O=C(CSc1nc2ccc(N3C(=O)c4ccccc4C3=O)cc2s1)Nc1ccc(F)cc1`, the displacement is -15.9%.

With `CC(C)(C)c1cc(C=NN2CCN(Cc3ccccc3)CC2)cc(C(C)(C)C)c1O`, the displacement was -8%.

In the case of `O=C(CCN1CCCCCC1)c1ccccc1`, the displacement was 6.8%.

Turning to `Cc1ccc(S(=O)(=O)Nc2cc(C)c(O)c(Sc3nc4ccccc4s3)c2)cc1`, the displacement was -2.2%.
